Test results: the RNAGym collection of RNA variant scans (doi:10.1073/pnas.2313332121)
Variants at the floor of the assay are shown more often than the library holds them.

B1: TPR 5TU (parent)
chain: GGAUCUUCUCGAUCUAACAAAAAAGACAAAUCUGCCACAAAGCUUGAGAGCAUCUUCGGAUGCAGAGGCGGCAGCCUUCGGUGGCGCGAUAGCGCCAACGUUCUCAACUAUGACACGCAAAACGCGUGCUCCGUUGAAUGGAGUUUAUCAUG

Variants of: B1
Experiment: polymerase ribozyme fitness, log enrichment relative to wild type (log ratio); higher = more active; in vitro selection for triplet polymerase activity
Method in brief: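 Mutant libraries were PCR-built and transcribed for each subunit of a heterodimeric triplet polymerase ribozyme and selected for one round in triplicate at −7 °C, frozen, before gel excision of extended constructs and streptavidin-bead capture. Input and output libraries were Illumina-sequenced, keeping genotypes with ≥10 input reads and ≥1 read per output. Fitness is a logarithmic ratio of genotype to wild-type enrichment, in base 2, using inverse-variance-weighted replicate averages.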

With GGAUCUUCUCGAUCUAACAAAAAAGACAAAUCUGCCACAAAGCUUGAGAGCAUCUUAGGAUGCAGAGGCGGCAGACUUCGGUGGCGUGAUAGCGCCAACGUUGUCAACUAUGACACGCAAAACGGGUGCUCCGUUGAAUGGAGUUUAUCAUG as the variant, how does the “polymerase ribozyme fitness (log ratio)” value read?
Its value is at most -4.2.

With GGAUCUUCUCGAUCUAACAAAAAAGACAAAUCUGCCACAAAGCUUGAGAGCAUCUUAGGAUGCAGAGGCGGCAGCAUUCGGUGGCGUGAUAGCGCCAACCUUCUCAACUAUGACACGCAAAACGCGUGCUCCGUUGAAUGGAGUUUAUCAUG as the variant, how does the “polymerase ribozyme fitness (log ratio)” value read?
The value was at most -4.2.

Which “polymerase ribozyme fitness (log ratio)” value does the source give for GGAUCUUCUCGAUCUAACAAAAAAGACAAAUCUGCCACAAAGCUUGAGAGCAUCUUAGGAUGCAGAGGCGGCAGCGUUCGGUGGCGCGAUAGCGCCAACGUUCUCAACUAUGACACGCAAAACGCGUGCUCCGUUGAAUGGAGUUUAUCAUG here?
The value was at most -4.2.

With GGAUCUUCUCGAUCUAACAAAAAAGACAAAUCUGCCACAAAGCUUGAGAGCAUCUUAAGAUGCAGAGUCGGCAGCCUUCGGUGGCGCGAUAGCGCCAACGUUCUCAACUAUGACACGCGAAACGCGUGCUCCGUUGAAUGUAGUUUAUCAUG as the variant, how does the “polymerase ribozyme fitness (log ratio)” value read?
Its value is at most -4.2.

Which “polymerase ribozyme fitness (log ratio)” value does the source give for GGAUCUUCUCGAUCUAACAAAAAAGACAAAUCUGCCACAAAGCUUGAGAGCAUCUUAGGAUGCAGAGGAGGCAGCCUUCGGUGGCGCGAUAGCGCCAACGUUCUCAACUAUGACACGCAAAACGCGAGCUCCGUUGAAUGGAGUUUAUCAUG here?
Its value is at most -4.2.

Which “polymerase ribozyme fitness (log ratio)” value does the source give for GGAUCUUCUCGAUCUAACAAAAAAGACAAAUCUGCCACAAAGCUUGAGAGCAUCUUAGGAUGCAGAGGCGGCAGCCUUUGGUGGCGCGAUAGUGCCAUCGUUCUCAACUAUGACACGCAAAACGCGUGCUCCGUUGAAUGGAGUUUUUCAUG here?
Its value is -3.03.

Which “polymerase ribozyme fitness (log ratio)” value does the source give for GGAUCUUCUCGAUCUAACAAAAAAGACAAAUCUGCCACAAAGCUUGAGAGCAUCUUAGGAUGCAGAGGUGGCACCCUUCGCUGGCCUGAUAGCGCCAACGUUCUCAACUAUGACACGCAAAACGCGUGCUCCGUUGAAUGGAGUUUAUCAUG here?
Its value is at most -4.2.

Which “polymerase ribozyme fitness (log ratio)” value does the source give for GGAUCUUCUCGAUCUAACAAAAAAGACAAAUCUGCCACAAAGCUUGAGAGCAUCUUAGGAUGCAGAGGCGGCAGCCUUCGGUGGCGCGAUAGCGCAAACGUUCUCAACUAUGACACGCAAAACGCGUGCUCCGUUGAAUGGAGUUUAUCAUG here?
Its value is -0.383.

With GGAUCUUCUCGAUCUAACAAAAAAGACAAAUCUGCCACAAAGCUUGAGAGCAUCUUAGGAUGCAGAGGCGGCAGCCUUCGGUGGAGCGAUAGCCCCAACGUUCUCAACUAUGACACGCAAAACGCGUACUCCGUUAAAUGGUGUUUAUCAUG as the variant, how does the “polymerase ribozyme fitness (log ratio)” value read?
The value was at most -4.2.

With GGAUCUUCUCGAUCUAACAAAAAAGACAAAUCUGCCACAAAGCUUGAGAGCAUCUUAGGAUGCAGAGGCGGCAGCCUUCGGUGGCGCGAUAGAGCCAACGUUCUCAACUAUGACACGCAAAACGCGUGCUCCGUUGAAUGGAGUUUAUCAUG as the variant, how does the “polymerase ribozyme fitness (log ratio)” value read?
The value was -2.04.

For GGAUCUUCUCGAUCUAACAAAAAAGACAAAUCUGCCACAAAGCUUGAGAGCAUCUUAGGAUGCAGAGGCGGCAGCCUUCGGUGGCGCGAUAGCGCCAACGUUCUCAACUAUGACACGCAAUACGCGUGCUCCGUUGAAUGGAGUUUAUCAUG, which “polymerase ribozyme fitness (log ratio)” value is on record?
Its value is -0.0826.

For GGAUCUUCUCGAUCUAACAAAAAAGACAAAUCUGCCACAAAGCUUGAGAGCAUCUUAGGAUGCAGAGGCGGCAGCCUUCGGUGGCGCGAUAGCGCCAACGUUCUCAACUAUGACACGCAAAACGCGUGUUCCGUUGAAUGAAGUUUAUCAUG, which “polymerase ribozyme fitness (log ratio)” value is on record?
The value was at most -4.2.

For GGAUCUUCUCGAUCUAACAAAAAAGACAAAUCUGCCACAAAGCUUGAGAGCAUCUUAAAAUGCAGAGGCGGCAGCCUUCGGUGGUGCGAUAGCGCCAACGUUGUCAACUCUGGCACGCAAAACGCGUGCUCCGUUGAAUGGAGUAUAUCAUG, which “polymerase ribozyme fitness (log ratio)” value is on record?
The value was at most -4.2.

With GGAUCUUCUCGAUCUAACAAAAAAGACAAAUCUGCCACAAAGCUUGAGAGCAUCUUAGGAUGCAGAGGCGGCAGCCUUCGGUGGAGCGAUAGCGCCAACGUUCUCAGCUAUGACACGCAAAACGCGUGCUCCGUUGAAUGGAGUUUAUCAUG as the variant, how does the “polymerase ribozyme fitness (log ratio)” value read?
Its value is at most -4.2.

With GGAUCUUCUCGAUCUAACAAAAAAGACAAAUCUGCCACAAAGCUUGAGAGCAUCUUAGGAUGCAGAGGUGGCAGCCUUCGGUGGCGCGAUUGCGCCAAAGUUCUCAACUAUGACACGCAAAACGCGUGCUCCGUUGAAUGGAGUUUAUCAUG as the variant, how does the “polymerase ribozyme fitness (log ratio)” value read?
Its value is at most -4.2.

For GGAUCUUCUCGAUCUAACAAAAAAGACAAAUCUGCCACAAAGCUUGAGAGCAUCUUAGGAUGCAGAGGCGGCAGCCUUCGGUGGCGCGAUAGCGUCAGCGUUCUCAACUAUGACACGCAAAACGCGUGCUCCGUUGAAUCGAGGUUAUCAUG, which “polymerase ribozyme fitness (log ratio)” value is on record?
Its value is at most -4.2.

With GGAUCUUCUCGAUCUAACAAAAAAGACAAAUCUGCCACAAAGCUUGAGAGCAUCUUAGGAUGCAGAGGCGGCAGCCUUCGGUGGCGGGGUAGCGUCAACGUUCUCAACUAUGACAUGCAAAACGCGUGCUCCGUUGAAUGGAGUUUAUCAUG as the variant, how does the “polymerase ribozyme fitness (log ratio)” value read?
Its value is at most -4.2.

Which “polymerase ribozyme fitness (log ratio)” value does the source give for GGAUCUUCUCGAUCUAACAAAAAAGACAAAUCUGCCACAAAGCUUGAGAGCAUCUUAGGAUGCAGAGGCGGCAGCCUUCGGUGGCGCGAUAGCGAUAACGUUCUCAACUAUGACACGCAAAACGCGUGCUCCGUUGAAUGAAGUUUAUCAUG here?
The value was -4.07.

With GGAUCUUCUCGAUCUAACAAAAAAGACAAAUCUGCCACAAAGCUUGAGAGCAUCUUAGAAUGCAGAGGCGGCAGCCUUCGGUGUCGCGAUAGCGCCUACGUUCUCAACUAUGACACGGAAAACGCGUGCUCCGUUGAAUGGAGUUUAUCAUG as the variant, how does the “polymerase ribozyme fitness (log ratio)” value read?
The value was -3.12.
